The other results are listed elsewhere or left out. Most values come without repeats; read them as rough.
How the values were obtained:
Test in all cases: cell count relative to DMSO control; melanoma cells; higher = more viable cells
Settings in all cases: library dose: low library concentration; 72 h
WM115 = system: WM115
WM1716 = system: WM1716
WM1745 = system: WM1745
WM3526 = system: WM3526
WM3619 = system: WM3619
WM451Lu = system: WM451Lu
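Note: cell number obtained by counting DAPI-stained nuclei in high-throughput microscope images with image analysis software, screen run in 1,536-well plates.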

Row | Compound | cell count (WM115) | cell count (WM1716) | cell count (WM1745) | cell count (WM3526) | cell count (WM3619) | cell count (WM451Lu)
1 | CN(C)S(=O)(=O)c1ccc2c(c1)/C(=C/c1cc3c([nH]1)CCCC3)C(=O)N2 + COc1ccc(COc2ccc(Cc3cnc(N)nc3N)cc2OC)cc1 [GW2580] (first compound 0.4 µM, partner dose 1 µM) | 79.2% | 113% | 91.5% | 104% | 99.3% | 114%
2 | OCCn1cc(-c2cnc3nnn(Cc4ccc5ncccc5c4)c3n2)cn1 + O=C(Nc1cccc(Cl)c1)Nc1ncc(CCNc2ncnc3ccsc23)s1 [SNS314] (first compound 1 µM, partner dose 0.0008 µM) | 98.8% | 103% | 115% | 92.9% | 88.8% | 99.4%
3 | NC(=O)Nc1cc(-c2cccc(F)c2)sc1C(=O)N[C@H]1CCCNC1 + COc1cc(N2CCC(N3CCN(C)CC3)CC2)ccc1Nc1ncc(Cl)c(Nc2ccccc2S(=O)(=O)C(C)C)n1 [NVP-TAE684] (first compound 0.02 µM, partner dose 0.08 µM) | 91.5% | 88.6% | 82.3% | 98.8% | 45.5% | 85.8%
4 | C[C@]1(c2nc3c(C(N)=O)cccc3[nH]2)CCCN1 [Veliparib] + N#Cc1c(O)c2c(-c3ccc(-c4ccccc4O)cc3)csc2[nH]c1=O [A769662] (first compound 1.4 µM, partner dose 2 µM) | 82.8% | 80.9% | 93% | 116% | 138% | 93.4%
5 | C[C@]1(c2nc3c(C(N)=O)cccc3[nH]2)CCCN1 [Veliparib] + CC(C)CCN1c2nc(Nc3cc(F)c(O)c(F)c3)ncc2N(C)C(=O)C1C [BID1870] (first compound 1.4 µM, partner dose 0.2 µM) | 87.5% | 94.8% | 92.5% | 100% | 104% | 136%
6 | C=CCn1c(=O)c2cnc(Nc3ccc(N4CCN(C)CC4)cc3)nc2n1-c1cccc(C(C)(C)O)n1 + O=C(O)C(=O)Nc1sc2c(c1C(=O)O)CCNC2 [TCS401] (first compound 0.02 µM, partner dose 1.66667 µM) | 90.9% | 88.2% | 72.4% | 80.7% | 79.3% | 107%
7 | C=CCn1c(=O)c2cnc(Nc3ccc(N4CCN(C)CC4)cc3)nc2n1-c1cccc(C(C)(C)O)n1 + c1cc(-c2cnn3cc(-c4ccc(OCCN5CCCCC5)cc4)cnc23)ccn1 [Dorsomorphin] (first compound 0.02 µM, partner dose 0.4 µM) | 89% | 80.9% | 58.4% | 79.5% | 87% | 83.4%
8 | NC(=O)Nc1cc(-c2cccc(F)c2)sc1C(=O)N[C@H]1CCCNC1 + O=C(O)c1ccc(-c2c[nH]c3ncc(-c4ccccc4)cc23)cc1C1CCCC1 [GSK650394] (first compound 0.02 µM, partner dose 0.16 µM) | 75.9% | 81.1% | 82.5% | 95.9% | 43.2% | 111%
9 | NC(=O)Nc1cc(-c2cccc(F)c2)sc1C(=O)N[C@H]1CCCNC1 + O=C(Nc1cccc(Cl)c1)Nc1ncc(CCNc2ncnc3ccsc23)s1 [SNS314] (first compound 0.02 µM, partner dose 0.0008 µM) | 78.3% | 84.4% | 93.6% | 93.5% | 83% | 93.3%
10 | OCCn1cc(-c2cnc3nnn(Cc4ccc5ncccc5c4)c3n2)cn1 + CN(C)S(=O)(=O)c1ccc2c(c1)/C(=C/c1cc3c([nH]1)CCCC3)C(=O)N2 [SU6656] (first compound 1 µM, partner dose 0.4 µM) | 71.4% | 112% | 112% | 86.9% | 110% | 81.2%
11 | NC(=O)Nc1cc(-c2cccc(F)c2)sc1C(=O)N[C@H]1CCCNC1 + c1cc(-c2cnn3cc(-c4ccc(OCCN5CCCCC5)cc4)cnc23)ccn1 [Dorsomorphin] (first compound 0.02 µM, partner dose 0.4 µM) | 93.8% | 85% | 86.9% | 80% | 57.1% | 93.6%
12 | C[C@]1(c2nc3c(C(N)=O)cccc3[nH]2)CCCN1 [Veliparib] + COc1ccc(COc2ccc(Cc3cnc(N)nc3N)cc2OC)cc1 [GW2580] (first compound 1.4 µM, partner dose 1 µM) | 90.6% | 97.6% | 82.2% | 104% | 94.5% | 158%
13 | OCCn1cc(-c2cnc3nnn(Cc4ccc5ncccc5c4)c3n2)cn1 + Cn1cncc1[C@@](N)(c1ccc(Cl)cc1)c1ccc2c(c1)c(-c1cccc(Cl)c1)cc(=O)n2C [tipifarnib] (first compound 1 µM, partner dose 0.01 µM) | 82.6% | 74.4% | 88.7% | 92.6% | 80.9% | 99%
14 | C=CCn1c(=O)c2cnc(Nc3ccc(N4CCN(C)CC4)cc3)nc2n1-c1cccc(C(C)(C)O)n1 + Cn1cc(/C=C2\C(=O)Nc3cccnc32)c2ccccc21 [GW441756] (first compound 0.02 µM, partner dose 0.4 µM) | 93.6% | 89.5% | 77.1% | 83.8% | 86.4% | 99.1%
15 | CO[C@@H]1[C@H](N(C)C(=O)c2ccccc2)C[C@H]2O[C@]1(C)n1c3ccccc3c3c4c(c5c6ccccc6n2c5c31)C(=O)NC4 [Midostaurin] + c1cc(-c2cnn3cc(-c4ccc(OCCN5CCCCC5)cc4)cnc23)ccn1 [Dorsomorphin] (first compound 0.08 µM, partner dose 0.4 µM) | 105% | 97.2% | 83.2% | 112% | 105% | 137%
16 | NC(=O)Nc1cc(-c2cccc(F)c2)sc1C(=O)N[C@H]1CCCNC1 + Cc1cc([N+](=O)[O-])ccc1NS(=O)(=O)c1cc(Cl)ccc1Cl [FH535] (first compound 0.02 µM, partner dose 1 µM) | 81.4% | 83.8% | 112% | 84.3% | 66.6% | 98%
17 | Cc1nc(Nc2ncc(C(=O)Nc3c(C)cccc3Cl)s2)cc(N2CCN(CCO)CC2)n1 [dasatanib] + O=C1NC(=O)/C(=C/c2ccc(-c3ccc(F)cc3O)o2)S1 [AS252424] (first compound 0.004 µM, partner dose 1 µM) | 70.5% | 77.4% | 81% | 109% | 97.1% | 94.3%
18 | C[C@]1(c2nc3c(C(N)=O)cccc3[nH]2)CCCN1 [Veliparib] + Cn1cncc1[C@@](N)(c1ccc(Cl)cc1)c1ccc2c(c1)c(-c1cccc(Cl)c1)cc(=O)n2C [tipifarnib] (first compound 1.4 µM, partner dose 0.01 µM) | 67% | 64.9% | 76.2% | 85.3% | 105% | 90.2%
19 | Cc1nc(Nc2ncc(C(=O)Nc3c(C)cccc3Cl)s2)cc(N2CCN(CCO)CC2)n1 [dasatanib] + CCc1ccc(CCOc2ccc(CC3SC(=O)NC3=O)cc2)nc1 [pioglitazone] (first compound 0.004 µM, partner dose 2 µM) | 76.7% | 81.2% | 66.1% | 83.2% | 76.3% | 66.4%
20 | Cc1nc(Nc2ncc(C(=O)Nc3c(C)cccc3Cl)s2)cc(N2CCN(CCO)CC2)n1 [dasatanib] + NCC(=O)Nc1ccc(-n2nc(C(F)(F)F)cc2-c2ccc3c(ccc4ccccc43)c2)cc1 [OSU03012] (first compound 0.004 µM, partner dose 1 µM) | 69.2% | 70.4% | 64.8% | 45.9% | 83.9% | 58.4%
21 | NC(=O)Nc1cc(-c2cccc(F)c2)sc1C(=O)N[C@H]1CCCNC1 + Cc1cc(N2CCOCC2)cc2[nH]c(-c3c(NC[C@@H](O)c4cccc(Cl)c4)cc[nH]c3=O)nc12 [BMS536924] (first compound 0.02 µM, partner dose 0.2 µM) | 84.2% | 76.1% | 71.1% | 59.8% | 70.3% | 78.9%
22 | CO[C@@H]1[C@H](N(C)C(=O)c2ccccc2)C[C@H]2O[C@]1(C)n1c3ccccc3c3c4c(c5c6ccccc6n2c5c31)C(=O)NC4 [Midostaurin] + NC(=O)Nc1cc(-c2cccc(F)c2)sc1C(=O)N[C@H]1CCCNC1 [AZD7762] (first compound 0.08 µM, partner dose 0.02 µM) | 78.5% | 70.2% | 84.4% | 69.2% | 38.5% | 112%
23 | NC(=O)Nc1cc(-c2cccc(F)c2)sc1C(=O)N[C@H]1CCCNC1 + Oc1cc(-c2nc(-c3ccccc3)[nH]c2-c2ccncc2)ccc1Cl [L779450] (first compound 0.02 µM, partner dose 0.2 µM) | 77% | 94.6% | 97% | 61.6% | 60.8% | 137%
24 | OCCn1cc(-c2cnc3nnn(Cc4ccc5ncccc5c4)c3n2)cn1 + O=C(Nc1ccccc1)c1cc([N+](=O)[O-])ccc1Cl [GW9662] (first compound 1 µM, partner dose 2 µM) | 93.6% | 107% | 117% | 129% | 173% | 107%
25 | CO[C@@H]1[C@H](N(C)C(=O)c2ccccc2)C[C@H]2O[C@]1(C)n1c3ccccc3c3c4c(c5c6ccccc6n2c5c31)C(=O)NC4 [Midostaurin] + COc1ccc2c(c1)CCC1C2CCC2(C)C(NCCCCCCN3C(=O)C=CC3=O)CCC12 [U73122] (first compound 0.08 µM, partner dose 0.4 µM) | 91.2% | 77.6% | 89.9% | 83.2% | 102% | 70.9%
